{"source": "PubChem BioAssay AID1379", "about": "(National Center for Advancing Translational Sciences (NCATS), 2008)", "note": "The whole screen tested about 200,000 compounds, of which about 560 (0.28%) were called active. The call rests on the fitted dose curve; in most records, active means well fitted inhibition curve with a large enough effect; inconclusive means small, poorly fitted or top-dose-only effect; inactive means flat fitted curve, though single readings scatter. Only a part is listed here, and it is no random draw. Where a structure was tested more than once in an assay, its records may differ in their call. On the % scale 0 is the no-effect control and ±100 the full control effect; potency means the concentration at half of the fitted maximal effect."}
{"target": "Luciferin 4-monooxygenase (Photuris pensylvanica) (UniProt Q27757)", "experiment": "Counterscreen for Luciferase (Kinase-Glo TM) Inhibition; further: nearly all actives have a fitted effect of over 60% in size", "settings": "ATP luminescence, 8 min; series mostly up to 38.3 µM; activity change, negative = inhibition: at the top concentration", "description": "NCGC Assay Overview: NIH Molecular Libraries Screening Centers Network [MLSCN] NIH Chemical Genomics Center [NCGC] MLSCN Grant: None Luciferase (Kinase-Glo, Promega Corporation) was assayed for its ability to generate light using ATP and luciferin as substrates. The ATP concentration in the assay (10 uM) was within the linear range of enzyme activity for the assay conditions used.\nNCGC Assay Protocol Summary: Four uL of substrate mix (final concentration, 50 mM imidazole pH 7.2, 50 mM KCl, 7 mM MgCl2, 10 uM ATP, 0.01% Tween 20, 0.05% BSA) was dispensed into white 1536 well plates. Twenty-three nL of compound was delivered by a pin tool and 2 uL of luciferase detection mix (Kinase-Glo, Promega)) was added. Following 8-minute incubation at ambient temperature, luminescence was measured by a ViewLux (Perkin Elmer) at 5 seconds exposure/plate."}
{"smiles": "O=C1c2c(O)ccc(O)c2C(=O)c2c(NCCNCCO)ccc(NCCNCCO)c21", "activity change, negative = inhibition": "inactive: -11.5% [at 17.1 µM]"}
{"smiles": "Cc1ccc(-c2nc(N/N=C/c3cccnc3)c3ccccc3n2)cc1", "Potency": "active: 7.94 µM"}
{"smiles": "Cc1nc(N=Nc2cc(S(=O)(=O)O)c3cc([N+](=O)[O-])cc(S(=O)(=O)O)c3c2)c(COP(=O)(O)O)c(C=O)c1O", "activity change, negative = inhibition": "inactive: -20.4%"}
{"smiles": "Oc1cc(O)cc(/C=C/c2ccc(O)c(O)c2)c1", "activity change, negative = inhibition": "inactive: -6.54%"}
{"smiles": "CN1C(=O)/C(=C/c2cc(N=Nc3ccccc3)ccc2O)SC1=S", "activity change, negative = inhibition": "inactive: -22.9%"}
{"smiles": "COc1cc2nc(N3CCN(C(=O)[C@H]4CCCO4)CC3)nc(N)c2cc1OC", "activity change, negative = inhibition": "inactive: -16.1%"}
{"smiles": "c1c2c(cc3sc(N4CCOCC4)nc13)OCO2", "Potency": "active: 11.2 µM"}
{"smiles": "COc1ccc(-c2nnc(SCC(=O)N(Cc3ccccc3)C(C)(C)C)o2)cc1OC", "activity change, negative = inhibition": "inactive: 32%"}
{"smiles": "O=C(/C=C/Nc1ccccc1)c1ccccc1", "Potency": "active: 7.08 µM"}
{"smiles": "Oc1cc2c(cc1O)[C@@H]1c3ccc(O)c(O)c3OC[C@]1(O)C2", "activity change, negative = inhibition": "inactive: -2.81%"}
{"smiles": "c1c2c(cc3sc(N4CCCCC4)nc13)OCCO2", "Potency": "active: 12.6 µM"}
{"smiles": "Oc1cc2c(cc1O)[C@H]1c3ccc(O)c(O)c3OC[C@@]1(O)C2", "activity change, negative = inhibition": "inactive: 0.288%"}
{"smiles": "c1ccc(-c2nc3ccccc3[nH]2)nc1", "Potency": "active: 7.94 µM"}
{"smiles": "COc1cc2nc(N3CCN(C(=O)C4CCCO4)CC3)nc(N)c2cc1OC", "note": "(configuration not stated)", "Potency": "inactive"}
{"smiles": "Cc1ccsc1/C=C/c1ccc2ccccc2n1", "Potency": "active: 11.2 µM"}
{"smiles": "Cc1cc(C(=O)N/N=C/c2ccc3c(c2)OCO3)c(C)o1", "Potency": "active: 12.6 µM"}
{"smiles": "COc1ccccc1Nc1nnc(SCC2CCCCO2)s1", "note": "(configuration not stated)", "Potency": "active: 8.91 µM"}
{"smiles": "COC1/C=C/OC2(C)Oc3c(C)c(O)c4c(O)c(c(/C=N/N5CCN(C)CC5)c(O)c4c3C2=O)NC(=O)/C(C)=C/C=C/C(C)C(O)C(C)C(O)C(C)C(OC(C)=O)C1C", "note": "(configuration not stated)", "activity change, negative = inhibition": "inactive: -8.09%"}
{"smiles": "Cc1occc1C(=O)Nc1ccc2c(c1)OCCO2", "Potency": "active: 7.08 µM"}
{"smiles": "COc1cc2nc(N3CCN(C(=O)[C@@H]4CCCO4)CC3)nc(N)c2cc1OC", "activity change, negative = inhibition": "inactive: -10% [at 17.1 µM]"}
{"smiles": "Cc1c(C(=O)O)c(O)cc2c1C(=O)c1c(O)c([C@H]3O[C@H](CO)[C@@H](O)[C@H](O)[C@H]3O)c(O)c(O)c1C2=O", "activity change, negative = inhibition": "inactive: -29.5% [at 39.9 µM]"}
{"smiles": "Cc1cccc(/C=C/c2nc3ccccc3c(=O)[nH]2)c1", "activity change, negative = inhibition": "inactive: -20.4%"}
